# Laboratory results as given in PubChem BioAssay AID1508624 (National Center for Advancing Translational Sciences (NCATS), 2021).
# Hit rate of the full screen: of about 48,000 compounds, about 120 (0.25%) were called active. Another 4% or so got no clear call; they are omitted. Calls come from the whole dose curve; as a rule, active = well fitted activation curve with a large enough effect; inconclusive = small, poorly fitted or top-dose-only effect, or another doubt; inactive = no such curve, though single readings can be large or run the other way. Some of the results follow.
# Assay: Primary qHTS for Identification of Small Molecule Activators of Huntingtin-Antisense Promoter Activity; note: nearly all actives have a fitted effect of over 55% in size
# Conditions: HEK293 HTT-AS promoter firefly luciferase reporter (activity 0% = vehicle and -100% = no light), 24 h; series mostly up to 57.5 µM; activity change, positive = activation: at the top concentration
# Method in brief: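 Quantitative HTS used concentration series of up to 57.5 uM final on HEK293 luciferase reporter cells, 24 h at 37 degrees C. Readout was Dual-Glo firefly luminescence.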
row,SMILES,"activity change, positive = activation"
1,O=C(NCC(c1cccnc1)N1CCN(Cc2ccccc2)CC1)C(=O)Nc1cccc(Cl)c1 (configuration not stated),inactive: -14.9%
2,O=C(O)c1cccc(-n2cnc3cccnc32)c1,inactive: -3.14%
3,CCc1nnc(NC(=O)c2nc(SC)ncc2Cl)s1,inactive: -11.7%
4,CCSc1oc(-c2cccs2)nc1S(=O)(=O)c1ccc(Br)cc1,inactive: -5.85%
5,NC(=O)CSc1nc2c(oc3ccccc32)c(=O)n1Cc1ccccc1,inactive: -5.04%
6,Cc1ccccc1C(=O)Nc1c(C(=O)Nc2cccc(F)c2)oc2ccccc12,inactive: -15.3%
7,O=C(NCc1ccc2c(c1)OCO2)c1ccc2c(c1)N(Cc1ccccc1F)C(=O)c1ccccc1S2=O (configuration not stated),inactive: -18.3%
8,C[C@@H]1CCC[C@H](C)N1CCCC(O)(c1ccccc1)c1ccccn1 (some centres not stated),inactive: -13.7%
9,Cc1cccn2c3c(c(=O)nc12)C(c1ccc(F)cc1)CC(=O)N3 (configuration not stated),inactive: -9.72%
10,CCCN(C(=O)c1c(C)oc2ncnc(N3CCOCC3)c12)c1ccc(Cl)c(Cl)c1,inactive: -9.34%
11,O=S(=O)(NCC(c1ccco1)N1CCN(c2ccccc2)CC1)c1ccccc1 (configuration not stated),inactive: -22.7%
12,CCOc1ccc(Cn2nnc(C(=O)Nc3ccc(Cl)cc3)c2N)cc1,inactive: 4.55%
13,COc1ccccc1CNC(=O)C1CCN(C(=O)c2sccc2-n2cccc2)CC1,inactive: -11.8%
14,CN(C1CCCCC1)S(=O)(=O)c1ccc2c(c1)c(=O)c(C(=O)NCc1ccc(F)cc1)cn2C,inactive: -6.67%
15,CCn1ccc2c(OCC(=O)Nc3ccc(C(C)=O)cc3)cccc2c1=O,inactive: -8.66%
16,COc1ccccc1CNC(=O)c1cc2c(-c3ccc(Cl)cc3)nn(C)c2s1,inactive: -19.3%
17,CCc1ccccc1NC(=O)CSc1nnc(-c2ccccc2)c(-c2ccccc2)n1,inactive: -33.7%
18,O=C(CN(c1ccc(Cl)c(C(F)(F)F)c1)S(=O)(=O)c1ccccc1)Nc1cccnc1,inactive: -27.6%
19,COc1cc(OC)cc(-c2cc3nc(C)c(CCC(=O)Nc4ccccc4OC)c(C)n3n2)c1,inactive: -83.4%
20,COCCNC(=O)Cn1c(=O)c2cccn2c2ccc(F)cc21,inactive: -3.7%
21,CCCCc1ccc(-n2nc3cc(Cl)c(NC(=O)c4ccc(OC)cc4)cc3n2)cc1,inactive: 10.8%
22,CCOC(=O)c1ccc2nc(C)cc(Nc3ccc(OC(C)C)cc3)c2c1,inactive: -30.9%
23,Cc1ccc(-n2cnc3cc(C(=O)NCc4ccc(F)cc4)ccc32)c(C)c1,inactive: -24.3%
24,Cc1cccc(C(=O)NCCc2nc3ccccc3n2Cc2ccc(Cl)cc2)c1,inactive: -34%
25,Cc1ccc(OC(C)C(=O)N2CCN(CCc3ccncc3)CC2)cc1C (configuration not stated),inactive: -17.3%

row,SMILES,"activity change, positive = activation"
1,CCOC(=O)c1cccc(NS(=O)(=O)c2ccc3[nH]c4c(c3c2)CCCC4)c1,inactive: -38.9%
2,Cc1ccc(NC(=O)c2ccc(Cl)cc2Cl)c(C(=O)c2ccccc2)c1,inactive: -25%
3,CCOc1ccc(-c2cc3c(=O)n(Cc4nc(-c5ccccc5OCC)oc4C)ccn3n2)cc1Cl,inactive: -14%
4,O=S(=O)(NCc1ccc(Cl)cc1)c1ccc2[nH]c3c(c2c1)CCCC3,inactive: -36.4%
5,Cc1ccc(Cn2c(C)c(CNCC(C)c3ccccc3)c(C(=O)O)c2C)cc1 (configuration not stated),inactive: -20.3%
6,CCC(CC)C(=O)Nc1ccccc1SCc1cc(=O)c2cccc(C)c2[nH]1,inactive: -18.2%
7,COCCCNC(=O)C1CCC(Cn2c(=O)c3sccc3n(C)c2=O)CC1 (configuration not stated),inactive: -7.38%
8,Cc1ccc(NC(=O)CN2CCN(c3ccccc3F)CC2)cc1F,inactive: -6.68%
9,CCOC(=O)C1CCN(c2nc3c(S(=O)(=O)c4ccccc4)nnn3c3ccc(Cl)cc23)CC1,inactive: -22.2%
10,O=c1c(=O)n(-c2ccccc2)ccn1Cc1c(F)cccc1Cl,inactive: -7.58%
11,CCOc1cccc(NC(=O)c2sc3nc(-c4ccc(F)cc4)ccc3c2N)c1,inactive: -3.49%
12,COc1cc(CNCCSc2nnnn2C)ccc1OCc1ccc(C)cc1,inactive: 14.3%
13,CCSc1ncc(Cl)c(C(=O)N(Cc2ccccc2)c2ccc(OC)cc2)n1,inactive: -46.1%
14,O=C(COCc1cc(-c2cccs2)on1)N1CCN(c2ccc(F)cc2)CC1,inactive: 2.25%
15,Cc1nc2cccnc2n1C1CCN(C(=O)Nc2ccccc2)CC1,inactive: -2.5%
16,Cc1cc(C)cc(N2CC(c3nnc(NC(=O)c4ccco4)s3)CC2=O)c1 (configuration not stated),inactive: -20.3%
17,COc1cc(C(=O)Nc2ccc(-n3c(C)nc4ccccc4c3=O)cc2)cc(OC)c1OC,inactive: -6.37%
18,Cc1nc(-c2ccc(Cl)cc2)oc1COC(C)(C)C(=O)O,inactive: -9.21%
19,O=c1c2oc3ccccc3c2n(Cc2ccc(F)cc2)c(=O)n1Cc1ccco1,inactive: -12.6%
20,CCCCn1c(=NC(=O)c2c(-c3c(F)cccc3Cl)noc2C)c(C(=O)OCC)cc2c(=O)n3ccccc3nc21,inactive: -15.9%
21,Cc1ccc(-c2noc(-c3ccc(NCc4cccnc4)c([N+](=O)[O-])c3)n2)cc1,inactive: 9.12%
22,CCOC(=O)C1CCN(C(c2ccc(OCC)cc2)c2c(O)cc(C)n(CCOC)c2=O)CC1 (configuration not stated),inactive: 4.13%
23,COc1ccc(CNS(=O)(=O)c2cc(Br)cc3c2N(C(C)=O)C(C)C3)cc1 (configuration not stated),inactive: -20.1%
24,O=C(NCc1cccc(F)c1)c1ccc(CN2CC(=O)N3CCCCC3C2=O)cc1 (configuration not stated),inactive: -19.5%
25,CC(=O)C1=C(c2ccc(Cl)c(Cl)c2)N(C(C)=O)n2c(nnc2-c2ccccc2)S1,inactive: -1.51%

row,SMILES,"activity change, positive = activation"
1,O=C(COCc1cc(-c2ccc(F)cc2)on1)Nc1cc(Cl)ccc1O,inactive: -21.4%
2,Cc1ccccc1-n1nc(CO)c(C(=O)NCC(c2ccccc2)c2ccccc2)n1,inactive: -43.6%
3,COc1ccc(CCNC(=O)CCCn2c(=O)c3ccccc3n(Cc3ccccc3C#N)c2=O)cc1OC,inactive: -5.26%
4,COc1cccc2cc(-c3nc(Nc4cccc(C)c4C)sc3C)c(=O)oc12,inactive: -20.1%
5,Nc1nonc1C(=O)NCCNCc1ccccc1F,inactive: -7.31%
6,COc1cccc(C2C=C(c3ccccc3)Nc3c(C(=O)Nc4ccccc4)cnn32)c1OC (configuration not stated),inactive: -22.9%
7,COc1cc(C(CC(=O)Nc2cccc(C(C)=O)c2)N2Cc3ccccc3C2=O)cc(OC)c1OC (configuration not stated),inactive: -34.8%
8,CC1(C)[C@H](C(=O)O)N2C(=O)C[C@H]2S1(=O)=O,inactive
9,CC(=O)Nc1nonc1-c1nnc(SCC(=O)Nc2cc(Cl)ccc2C)n1C,inactive: -16.1%
10,CCOC(=O)c1c(NC(=O)/C=C/c2ccc(C)cc2)sc(C(C)=O)c1C,inactive: -5.3%
11,COc1ccc(C(=O)c2sc3nc(-c4ccc(C)cc4)cc(C(F)(F)F)c3c2N)cc1,inactive: -15%
12,CCCCc1c(C)nc2c(-c3ccc(Cl)cc3)c(C)[nH]n2c1=O,inactive: -21%
13,Cc1ccc(C)c(N2CCN(S(=O)(=O)c3ccc(-c4coc(C)n4)cc3)CC2)c1,inactive: -28%
14,CCOC(=O)C(CC)n1nc(C)c2c(C)n(-c3ccc(C)cc3)nc2c1=O (configuration not stated),inactive: -26.6%
15,CCCCN(CCCNC(=O)c1cc(Nc2ccc(OC)cc2)nc2ccccc12)Cc1ccccc1,inactive: -2.19%
16,COc1ccc(-n2cc(-c3ccc4c(c3)OCO4)n(CC(=O)Nc3cccc(C)c3C)c2=O)c(OC)c1,inactive: -28.5%
17,Cc1ccc(S(=O)(=O)c2nc(S(=O)(=O)c3ccc(C)cc3)c(NCCCOC(C)C)s2)cc1,inactive: -3.31%
18,O=S(=O)(Nc1ccc(F)c(Cl)c1)c1ccc(Br)s1,inactive: -28.4%
19,CCOC(=O)c1ccc(N2C(=O)c3n[nH]c(-c4cccs4)c3C2c2ccc(CC)cc2)cc1 (configuration not stated),inactive: -81.1%
20,COc1cc2c3cc1Oc1cc(ccc1O)C[C@@H]1c4c(cc(OC)c(O)c4Oc4ccc(cc4)C[C@@H]3N(C)CC2)CC[N+]1(C)C,inactive: -11%
21,Cc1cccc(N2CCN(C(=O)Cn3ncc4c5ccccc5n(C)c4c3=O)CC2C)c1 (configuration not stated),inactive: -6.74%
22,O=c1c(S(=O)(=O)c2ccccc2)cn(Cc2ccc(F)cc2)c2cc(N3CCOCC3)c(F)cc12,inactive: -10.1%
23,Cc1cc(Nc2ncc3c(n2)N(C)C(=O)N(c2cc(NC(=O)c4cccc(C(F)(F)F)c4)ccc2C)C3)n(C)n1,inactive: -19.6%
24,CC(C)CC(=O)Nc1ccccc1OCc1cc(=O)n2ccccc2n1,inactive: -7.21%
25,CC(=O)N1CCc2c(sc3c2c(=O)n(-c2cc(Cl)ccc2C)c(=O)n3Cc2ccccc2F)C1,inactive: -35.1%

row,SMILES,"activity change, positive = activation"
1,O=C(Nc1ccc(Br)cc1F)N1CCC(CN2CCc3ccccc3C2)CC1,inactive: -5.87%
2,COC(=O)c1cc(Cl)ccc1NC(=O)CSc1ncc(S(=O)(=O)c2ccc(Br)cc2)c(=O)[nH]1,inactive: -5.51%
3,COc1ccc(C(=O)COC(=O)CCCC(=O)Nc2cc(C(F)(F)F)ccc2Cl)cc1,inactive: -6.24%
4,COc1ccc(OCC(=O)OCc2cc(=O)n3nc(C4CC4)sc3n2)cc1,inactive: -14.7%
5,CCCCOC(=O)c1ccc(NC(=O)c2cc(-c3cccs3)on2)cc1,inactive: -13.1%
6,CCOC(=O)c1c(NC(=O)/C=C/c2ccc(C)cc2)sc2c1CCCC2,inactive: -11%
7,O=C(NCCc1ccc(Cl)cc1)c1cc(-c2ccc(Cl)cc2)n[nH]1,inactive: -6.66%
8,Cc1ccc(CNC(=O)CCCc2nnc3n(C)c(=O)c4sccc4n23)cc1,inactive: -0.545%
9,CCC(C)NC(=O)c1ccc2nc(CCc3ccccc3)oc2c1 (configuration not stated),inactive: 3.16%
10,Cc1ccc(NC(=O)C(=O)NCC(c2ccc3c(c2)OCO3)N2CCOCC2)cc1C (configuration not stated),inactive: -6.92%
11,Cn1c(=O)c2c(nc(NCCc3ccccc3)n2Cc2ccc(Cl)cc2)n(C)c1=O,inactive: -40.3%
12,Cc1cccc(C(=O)Nc2sc3c(c2C(=O)NC(C)C)CCCC3)c1,inactive: -31.5%
13,CCOC(=O)c1cc(S(=O)(=O)NCc2cccc(Cl)c2)[nH]n1,inactive: 12.4%
14,O=C(O)c1ccc(-c2c[nH]c3ncc(-c4ccccc4)cc23)cc1C1CCCC1,inactive: -11.3%
15,CCOC(=O)c1cnc2cc(F)c(F)cc2c1Nc1ccccc1O,inactive: -12.5%
16,CC(C)(C)OC(=O)N1CCC(c2c(C(=O)N3CCCCC3)cnn2-c2cccc(F)c2)CC1,inactive: 0%
17,Nc1nnnn1-c1ccccc1,inactive: -8.79%
18,CC(=O)c1ccc(N2CCN(C(=O)CCc3nnc4n(C)c(=O)c5sccc5n34)CC2)cc1,inactive: -23.2%
19,CCCCn1c(SCC(=O)Nc2ccc(OCC)cc2)nc2ccsc2c1=O,inactive: -5.35%
20,COc1cc(OC)c(NC(=O)c2noc3c2CSc2ccccc2-3)cc1Cl,inactive: -5.67%
21,Cc1ccc(C)c(NC(=O)CSc2nnc(-c3cc4occc4n3C)n2-c2ccccc2C)c1,inactive: -25.7%
22,Cc1ccc(NS(=O)(=O)c2cc3[nH]c(=O)c(=O)[nH]c3cc2C)cc1N(C)C,inactive: -20.9%
